Publication PMC5892938
Some of the results follow. At the low end of the ranking the order means little.

Biological target: GST-SBP-SLBP (stem-loop binding protein) (UniProt Q14493)
Assay: targeted RNA Bind-n-Seq;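 also: DESeq read counts versus GST-SBP nonspecific binding control pulldown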
Details: RBNS binding buffer: 25 mM Tris pH 7.5, 150 mM KCl, 3 mM MgCl2, 0.1% Tween, 0.5 mg/mL BSA, 1 mM DTT; 27 nM protein, 750 pM RNA pool; temperature not stated; high values mean tight binding

Sequence	binding signal (log2 fold change)
GGUCACGUCUCAAUCAACUCUUUCCCAGGAGUUUUCUCCUGUUAACUCAACAGCUCGCAGUCAAG	0.111
GGUCACGUCUCAAUCAACUCUUUUCCAGGAGUUUCCUCCUGCAAUUUCAACAGCUCGCAGUCAAG	0.0922
GGUCACGUCUCAAUCAACUCAUCGGCAGGAGUUUUCUCCUGGAAUCUCAACAGCUCGCAGUCAAG	0.078
GGUCACGUCUCAAUCAACUCUCAAGAGGGGGGGAAAACCCCUUUACCCUCGUAAUCAACAGCUCGCAGUCAAG	0.147
GGUCACGUCUCAAUCAACUCAUCUCCCAGGGAAAUCCCUGGCUAACUCAACAGCUCGCAGUCAAG	-0.0124
GGUCACGUCUCAAUCAACUCAUCCCCCAGGGAAAUCCCUGGUAUUCUCAACAGCUCGCAGUCAAG	-0.308
GGUCACGUCUCAAUCAACUCAAUUUCCAGGGAAAGCCCUGGUUAACUCAACAGCUCGCAGUCAAG	0.204
GGUCACGUCUCAAUCAACUCAACAGAGGGGGGGAAAACCCCUUUACCCUCAAUCUCAACAGCUCGCAGUCAAG	-0.303
GGUCACGUCUCAAUCAACUCUAUCCCCAGGGAAAUCCCUGGCAAAUUCAACAGCUCGCAGUCAAG	-0.0972
GGUCACGUCUCAAUCAACUCAUCAGAGGGGGGGAAAACCCCUUUGCCCUCACAAUCAACAGCUCGCAGUCAAG	0.0708
GGUCACGUCUCAAUCAACUCGUUUUCAGGAGUUUUCUCCUGUAUUUUCAACAGCUCGCAGUCAAG	-0.054
GGUCACGUCUCAAUCAACUCAGUCUCAGGAGUUUGCUCCUGUAUUUUCAACAGCUCGCAGUCAAG	0.0422
GGUCACGUCUCAAUCAACUCAUACGAGGGGGGGAAAACCCCUUUACCCUCUUUUUCAACAGCUCGCAGUCAAG	-0.13
GGUCACGUCUCAAUCAACUCUACUCCCAGGGAAACCCCUGGUAAUCUCAACAGCUCGCAGUCAAG	0.243
GGUCACGUCUCAAUCAACUCUCCAGAGGGGGGGAAAACCCCUUUGCCCUCAAAUUCAACAGCUCGCAGUCAAG	-0.106
GGUCACGUCUCAAUCAACUCAGUUUCAGGAGUUUACUCCUGCAUUUUCAACAGCUCGCAGUCAAG	-0.217
GGUCACGUCUCAAUCAACUCAUCCUCCAGGGAAAUCCCUGGUAAUUUCAACAGCUCGCAGUCAAG	0.194
GGUCACGUCUCAAUCAACUCAUCUUCAGGAGUUUACUCCUGCUUUGUCAACAGCUCGCAGUCAAG	0.159
GGUCACGUCUCAAUCAACUCUUUUUCAGGAGUUUACUCCUGUAAUCUCAACAGCUCGCAGUCAAG	0.0791
GGUCACGUCUCAAUCAACUCAAUGUCAGGAGUUUUCUCCUGUUUACUCAACAGCUCGCAGUCAAG	0.174
GGUCACGUCUCAAUCAACUCAACUCCAGGAGUUUACUCCUGUAAUCUCAACAGCUCGCAGUCAAG	0.456
GGUCACGUCUCAAUCAACUCAUCUCCCAGGGAAAACCCUGGCUAACUCAACAGCUCGCAGUCAAG	-0.0349
GGUCACGUCUCAAUCAACUCUAUCUCAGGAGUUUCCUCCUGUUAUCUCAACAGCUCGCAGUCAAG	0.157
GGUCACGUCUCAAUCAACUCUUCUCCAGGAGUUUUCUCCUGUAAUUUCAACAGCUCGCAGUCAAG	-0.0241
GGUCACGUCUCAAUCAACUCUUUCUCAGGAGUUUACUCCUGUUAAUUCAACAGCUCGCAGUCAAG	0.211

Sequence	binding signal (log2 fold change)
GGUCACGUCUCAAUCAACUCAGUUUCAGGAGUUUGCUCCUGUAUUUUCAACAGCUCGCAGUCAAG	0.00435
GGUCACGUCUCAAUCAACUCAUUUCCCAGGGAAAACCCUGGUAUUCUCAACAGCUCGCAGUCAAG	0.178
GGUCACGUCUCAAUCAACUCUUUUUCAGGAGUUUACUCCUGCAAUCUCAACAGCUCGCAGUCAAG	-0.0284
GGUCACGUCUCAAUCAACUCUACUUCCAGGGAAAACCCUGGCUAUUUCAACAGCUCGCAGUCAAG	-0.109
GGUCACGUCUCAAUCAACUCUAUUCCAGGAGUUUUCUCCUGCAUAUUCAACAGCUCGCAGUCAAG	-0.131
GGUCACGUCUCAAUCAACUCAUCGUCAGGAGUUUGCUCCUGUAAUUUCAACAGCUCGCAGUCAAG	-0.0164
GGUCACGUCUCAAUCAACUCGUCUUCAGGAGUUUACUCCUGCUUAUUCAACAGCUCGCAGUCAAG	0.0165
GGUCACGUCUCAAUCAACUCUUAAGAGGGGGGGAAAACCCCUUUACCCUCCAAAUCAACAGCUCGCAGUCAAG	-0.0057
GGUCACGUCUCAAUCAACUCAUCUCCCAGGGAAAACCCUGGCUUACUCAACAGCUCGCAGUCAAG	0.244
GGUCACGUCUCAAUCAACUCUUUCUCCAGGGAAACCCCUGGUAAUCUCAACAGCUCGCAGUCAAG	-0.1
GGUCACGUCUCAAUCAACUCAUCUUCAGGAGUUUGCUCCUGCUAUCUCAACAGCUCGCAGUCAAG	0.00705
GGUCACGUCUCAAUCAACUCAACGCCAGGAGUUUUCUCCUGUAUAUUCAACAGCUCGCAGUCAAG	-0.076
GGUCACGUCUCAAUCAACUCUUUUUCAGGAGUUUUCUCCUGUAGUCUCAACAGCUCGCAGUCAAG	0.197
GGUCACGUCUCAAUCAACUCAGUCCCAGGAGUUUUCUCCUGUAUUUUCAACAGCUCGCAGUCAAG	0.0336
GGUCACGUCUCAAUCAACUCAAUCUCCAGGGAAAACCCUGGUAUAUUCAACAGCUCGCAGUCAAG	-0.379
GGUCACGUCUCAAUCAACUCAACUCCCAGGGAAAUCCCUGGUUUUCUCAACAGCUCGCAGUCAAG	-0.0386
GGUCACGUCUCAAUCAACUCUUUUUCAGGAGUUUACUCCUGCAUUCUCAACAGCUCGCAGUCAAG	0.161
GGUCACGUCUCAAUCAACUCUAUUUCAGGAGUUUCCUCCUGCAUAUUCAACAGCUCGCAGUCAAG	0.119
GGUCACGUCUCAAUCAACUCUUUUUCCAGGGAAAGCCCUGGCAAAUUCAACAGCUCGCAGUCAAG	0.0671
GGUCACGUCUCAAUCAACUCAUCCCCCAGGGAAAGCCCUGGUUAAUUCAACAGCUCGCAGUCAAG	-0.243
GGUCACGUCUCAAUCAACUCUUUAGAGGGGGGGAAAACCCCUUUACCCUCCACGUCAACAGCUCGCAGUCAAG	-0.393
GGUCACGUCUCAAUCAACUCAUCCUCCAGGGAAACCCCUGGCAAACUCAACAGCUCGCAGUCAAG	0.0588
GGUCACGUCUCAAUCAACUCAUUCUCCAGGGAAAACCCUGGCUUACUCAACAGCUCGCAGUCAAG	0.21
GGUCACGUCUCAAUCAACUCACACGAGGGGGGGAAAACCCCUUUACCCUCAUUUUCAACAGCUCGCAGUCAAG	0.00982
GGUCACGUCUCAAUCAACUCAAUCCCCAGGGAAAUCCCUGGCAUAUUCAACAGCUCGCAGUCAAG	-0.193

Sequence	binding signal (log2 fold change)
GGUCACGUCUCAAUCAACUCAAUCCCAGGAGUUUUCUCCUGUAGUCUCAACAGCUCGCAGUCAAG	1.19e-05
GGUCACGUCUCAAUCAACUCUUCUCCCAGGGAAAUCCCUGGCUAUGUCAACAGCUCGCAGUCAAG	-0.0858
GGUCACGUCUCAAUCAACUCUAUCUCCAGGGAAAGCCCUGGUAAUUUCAACAGCUCGCAGUCAAG	-0.273
GGUCACGUCUCAAUCAACUCUCUAGAGGGGGGGAAAACCCCUUUGCCCUCCAAAUCAACAGCUCGCAGUCAAG	-0.242
GGUCACGUCUCAAUCAACUCUUCCCCCAGGGAAAACCCUGGUUUAUUCAACAGCUCGCAGUCAAG	0.0898
GGUCACGUCUCAAUCAACUCCUUAGAGGGGGGGAAAACCCCUUUGCCCUCACACUCAACAGCUCGCAGUCAAG	-0.122
GGUCACGUCUCAAUCAACUCAAUAGAGGGGGGGAAAACCCCUUUACCCUCAACCUCAACAGCUCGCAGUCAAG	-0.515
GGUCACGUCUCAAUCAACUCUAUCUCCAGGGAAAUCCCUGGCAUACUCAACAGCUCGCAGUCAAG	0.136
GGUCACGUCUCAAUCAACUCGUUUUCAGGAGUUUACUCCUGCUUAUUCAACAGCUCGCAGUCAAG	0.329
GGUCACGUCUCAAUCAACUCAACGCCAGGAGUUUUCUCCUGCUUAUUCAACAGCUCGCAGUCAAG	-0.141
GGUCACGUCUCAAUCAACUCCACUGAGGGGGGGAAAACCCCUUUACCCUCCACAUCAACAGCUCGCAGUCAAG	-0.0132
GGUCACGUCUCAAUCAACUCUACUCCAGGAGUUUUCUCCUGCAAUUUCAACAGCUCGCAGUCAAG	0.0617
GGUCACGUCUCAAUCAACUCCAACGAGGGGGGGAAAACCCCUUUACCCUCAAUUUCAACAGCUCGCAGUCAAG	-0.626
GGUCACGUCUCAAUCAACUCUUACGAGGGGGGGAAAACCCCUUUACCCUCCAAAUCAACAGCUCGCAGUCAAG	-0.152
GGUCACGUCUCAAUCAACUCUUCUUCAGGAGUUUCCUCCUGCAUUCUCAACAGCUCGCAGUCAAG	-0.0103
GGUCACGUCUCAAUCAACUCAAUUUCAGGAGUUUGCUCCUGCUUACUCAACAGCUCGCAGUCAAG	-0.0335
GGUCACGUCUCAAUCAACUCUCUAGAGGGGGGGAAAACCCCUUUACCCUCAUAAUCAACAGCUCGCAGUCAAG	-0.245
GGUCACGUCUCAAUCAACUCACACGAGGGGGGGAAAACCCCUUUACCCUCUAUCUCAACAGCUCGCAGUCAAG	-0.155
GGUCACGUCUCAAUCAACUCAGUCCCCAGGGAAAACCCUGGUUUAUUCAACAGCUCGCAGUCAAG	-0.155
GGUCACGUCUCAAUCAACUCAAUUUCCAGGGAAAUCCCUGGCUUACUCAACAGCUCGCAGUCAAG	-0.242
GGUCACGUCUCAAUCAACUCAUCUUCCAGGGAAAUCCCUGGCGUAUUCAACAGCUCGCAGUCAAG	-0.269
GGUCACGUCUCAAUCAACUCUAGUCCCAGGGAAACCCCUGGCAUAUUCAACAGCUCGCAGUCAAG	-0.32
GGUCACGUCUCAAUCAACUCGUCUUCAGGAGUUUACUCCUGCAUUUUCAACAGCUCGCAGUCAAG	-0.118
GGUCACGUCUCAAUCAACUCACACGAGGGGGGGAAAACCCCUUUACCCUCCACAUCAACAGCUCGCAGUCAAG	0.116
